# Experimental data from patent US20070059684A1 (UNIVERSITY OF MEDICINE AND DENTISTRY OF NEW JERSEY, published 2007).
# Key:
# [1] = system: −1 ribosomal frameshifting (L-A frameshift signal, pF8); test: paromomycin effect on LacZ gene expression / % −1 ribosomal frameshifting in mof4-1 strains; details: for % −1 ribosomal frameshifting: 30° C. 4 hours
# [2] = system: −1 ribosomal frameshifting in mak8-2 cells; details: mak8-2 cells (1906)
# Experimental: FIG. 9. 1906 Cells (MATa leu2 mak8-2 K− MTK+) harboring either pJD136.0 or pJD136.-1 (LEU2 CEN vectors into which Hind III fragments from either pTI25 or pF8 containing either the 0-frame control or −1 ribosomal frameshift indicator fragments were cloned) were inoculated to an O.D.550 of 0.2 in H-Leu medium containing the indicated concentrations of anisomycin or sparsomycin and incubated at 30° C. for 5 hrs, after which _-galactosidase (_-gal) activities were determined. (A, B) As described above for FIGS. 8A and 8B. (C, D) The ordinate depicts actual −1 ribosomal frameshifting efficiencies.
# The model also predicts that host cells harboring mutations in gene products involved in the formation of the peptidyl transferase center should 1) have efficiencies of −1 ribosomal frameshifting different from wild-type cells, 2) should have viral propagation defects and, 3) neither anisomycin nor sparsomycin should have any additional effects upon −1 ribosomal frameshifting efficiencies. The TCM1 (MAK8) gene encodes ribosomal protein L3 [Fried and Warner, Proc. Natl. Acad. Sci. USA, 78:238 (1981); Fried and Warner, Nucl. […] The efficiency of −1 ribosomal frameshifting in mak8-2 cells in the absence of drugs was determined to be approximately 5.2% (FIG. 9A,B, no drug). […]
# [3] = system: −1 ribosomal frameshifting; details: yeast extract, increasing concentrations, 24° C. 1 hr
# translation (LUC0 mRNA) = system: translation (LUC0 mRNA)
# Experimental: (§1) FIG. 14. The LUC0 and LUC-1 mRNAs were used to measure the effects of anisomycin and sparsomycin on translation and −1 ribosomal frameshifting in an in vitro rabbit reticulocyte translation system (Retic Lysated WVT kit, Ambion). As in FIG. 13, 20 ng of either LUC0 or LUC-1 mRNAs were used for these assays.
# (§2) As a first step, the LUC0 and LUC-1 mRNAs were used to measure the effects of these two drugs on translation and −1 ribosomal frameshifting in an in vitro rabbit reticulocyte translation system. […] Some notable differences were observed. First, the reticulocyte extracts were approximately 10 times more sensitive to anisomycin and 100 times more sensitive to sparsomycin than were the yeast extracts. […] With regard to −1 ribosomal frameshifting, the reticulocyte system was much more sensitive to both drugs. The highest concentration of anisomycin (15.2 nM) decreased −1 ribosomal frameshifting efficiencies to only 3% of the no drug control, effectively shutting it down. […] As with the yeast in vitro translation system, initial efficiencies of −1 ribosomal frameshifting were higher than observed in vivo, again most likely due to stabilization of the LUC-1 mRNA in this system.
# [4] = system: −1 ribosomal frameshifting
# Experimental: as §1, §2
compound,measurement,setting,value
NC[C@@H]1O[C@H](O[C@H]2[C@@H](O)[C@H](O[C@@H]3[C@@H](O)[C@H](N)C[C@H](N)[C@H]3O[C@H]3O[C@H](CO)[C@@H](O)[C@H](O)[C@H]3N)O[C@@H]2CO)[C@H](N)[C@@H](O)[C@@H]1O [paromomycin],% −1 ribosomal frameshifting,"[1]; mof4-1 + pUPF1, paromomycin 5 μg/ml",2.2%
same,% −1 ribosomal frameshifting,"[1]; mof4-1 + pUPF1, paromomycin 10 μg/ml",3.0%
same,% −1 ribosomal frameshifting,"[1]; mof4-1 + pUPF1, paromomycin 25 μg/ml",2.9%
same,% −1 ribosomal frameshifting,"[1]; mof4-1 + pUPF1, paromomycin 50 μg/ml",2.0%
same,% −1 ribosomal frameshifting,"[1]; mof4-1 + pUPF1, paromomycin 100 μg/ml",2.6%
same,% −1 ribosomal frameshifting,"[1]; mof4-1 + pUPF1, paromomycin 250 μg/ml",2.2%
same,% −1 ribosomal frameshifting,"[1]; mof4-1 + pUPF1, paromomycin 500 μg/ml",2.2%
same,% −1 ribosomal frameshifting,"[1]; mof4-1, paromomycin 5 μg/ml",9.2%
same,% −1 ribosomal frameshifting,"[1]; mof4-1, paromomycin 10 μg/ml",9.4%
same,% −1 ribosomal frameshifting,"[1]; mof4-1, paromomycin 25 μg/ml",13.5%
same,% −1 ribosomal frameshifting,"[1]; mof4-1, paromomycin 50 μg/ml",14.7%
same,% −1 ribosomal frameshifting,"[1]; mof4-1, paromomycin 100 μg/ml",15.3%
same,% −1 ribosomal frameshifting,"[1]; mof4-1, paromomycin 250 μg/ml",17.8%
same,% −1 ribosomal frameshifting,"[1]; mof4-1, paromomycin 500 μg/ml",22.2%
same,LacZ expression (β-galactosidase activity),"[1]; mof4-1 strain, increasing concentrations of paromomycin",steadily climbed
same,β-galactosidase activity,"[1]; wildtype strain or mof4-1 strain harboring the wildtype UPF1 gene, addition of paromomycin",unaffected
COc1ccc(C[C@H]2NC[C@H](O)[C@H]2OC(C)=O)cc1 [anisomycin],efficiency of −1 ribosomal frameshifting,[2],neither of these drugs affects the efficiency of −1 ribosomal frameshifting
same,efficiency of −1 ribosomal frameshifting in vitro,[3],decreased the efficiency of −1 ribosomal frameshifting
same,overall production of luciferase from the LUC0 mRNA,translation (LUC0 mRNA),stimulated overall production of luciferase
same,sensitivity of reticulocyte extracts relative to yeast extracts,[4],approximately 10 times
same,−1 ribosomal frameshifting,[4]; […],inhibits
same,−1 ribosomal frameshifting efficiency as % of the no drug control,[4]; highest concentration of anisomycin (15.2 nM),3%
